For one test, the target named is Myc-Parkin (UniProt O60260). The test is described as follows: co-IP; Myc IP (Dynabeads with anti-Myc) from lysates of HEK293T cells co-transfected with Myc-Parkin and pCI-SEP-GluA1/-GluA2/-GluN1/-GluN2B; lysis buffer 50 mM Tris-base, 150 mM NaCl, 1% Triton X-100, 0.5% deoxycholic acid; 4 °C, 2-4 h; blots for Myc and GFP.
Another test addresses T1, GFP-Homer1 (UniProt Q9Z214).
T1 sequence: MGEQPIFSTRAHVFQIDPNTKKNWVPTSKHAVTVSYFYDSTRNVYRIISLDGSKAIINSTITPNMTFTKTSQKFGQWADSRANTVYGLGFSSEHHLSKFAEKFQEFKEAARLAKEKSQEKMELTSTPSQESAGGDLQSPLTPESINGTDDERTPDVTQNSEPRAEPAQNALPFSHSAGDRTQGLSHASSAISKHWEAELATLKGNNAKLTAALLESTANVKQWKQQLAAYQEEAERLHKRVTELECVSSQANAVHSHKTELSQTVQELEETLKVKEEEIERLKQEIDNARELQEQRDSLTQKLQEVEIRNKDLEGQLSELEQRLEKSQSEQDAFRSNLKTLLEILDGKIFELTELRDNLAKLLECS
As to the kind of experiment: co-IP; Homer1 IP (Dynabeads with anti-Homer1) from lysates of HEK293T cells co-transfected with GFP-Homer1 and GFP-Parkin WT or mutants; lysis buffer 50 mM Tris-base, 150 mM NaCl, 1% Triton X-100, 0.5% deoxycholic acid; 4 °C, 2-4 h; blots for Parkin and Homer1.

Protein sequences, listed by entry. Tags and fused reporters are not part of them. Residues count along the entry.
UniProt O60260: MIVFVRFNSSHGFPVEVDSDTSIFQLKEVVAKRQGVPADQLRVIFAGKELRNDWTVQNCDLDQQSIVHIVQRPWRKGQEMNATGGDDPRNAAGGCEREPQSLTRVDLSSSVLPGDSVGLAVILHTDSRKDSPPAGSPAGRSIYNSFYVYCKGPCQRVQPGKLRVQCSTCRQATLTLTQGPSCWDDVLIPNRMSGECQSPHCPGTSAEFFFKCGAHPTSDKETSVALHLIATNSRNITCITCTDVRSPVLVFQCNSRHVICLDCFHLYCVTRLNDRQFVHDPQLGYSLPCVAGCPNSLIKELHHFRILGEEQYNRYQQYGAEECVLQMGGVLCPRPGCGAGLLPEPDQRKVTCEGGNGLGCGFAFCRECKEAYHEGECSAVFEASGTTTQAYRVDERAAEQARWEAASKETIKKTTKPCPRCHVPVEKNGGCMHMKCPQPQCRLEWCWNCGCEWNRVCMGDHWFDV
UniProt P19490, residues 19-907: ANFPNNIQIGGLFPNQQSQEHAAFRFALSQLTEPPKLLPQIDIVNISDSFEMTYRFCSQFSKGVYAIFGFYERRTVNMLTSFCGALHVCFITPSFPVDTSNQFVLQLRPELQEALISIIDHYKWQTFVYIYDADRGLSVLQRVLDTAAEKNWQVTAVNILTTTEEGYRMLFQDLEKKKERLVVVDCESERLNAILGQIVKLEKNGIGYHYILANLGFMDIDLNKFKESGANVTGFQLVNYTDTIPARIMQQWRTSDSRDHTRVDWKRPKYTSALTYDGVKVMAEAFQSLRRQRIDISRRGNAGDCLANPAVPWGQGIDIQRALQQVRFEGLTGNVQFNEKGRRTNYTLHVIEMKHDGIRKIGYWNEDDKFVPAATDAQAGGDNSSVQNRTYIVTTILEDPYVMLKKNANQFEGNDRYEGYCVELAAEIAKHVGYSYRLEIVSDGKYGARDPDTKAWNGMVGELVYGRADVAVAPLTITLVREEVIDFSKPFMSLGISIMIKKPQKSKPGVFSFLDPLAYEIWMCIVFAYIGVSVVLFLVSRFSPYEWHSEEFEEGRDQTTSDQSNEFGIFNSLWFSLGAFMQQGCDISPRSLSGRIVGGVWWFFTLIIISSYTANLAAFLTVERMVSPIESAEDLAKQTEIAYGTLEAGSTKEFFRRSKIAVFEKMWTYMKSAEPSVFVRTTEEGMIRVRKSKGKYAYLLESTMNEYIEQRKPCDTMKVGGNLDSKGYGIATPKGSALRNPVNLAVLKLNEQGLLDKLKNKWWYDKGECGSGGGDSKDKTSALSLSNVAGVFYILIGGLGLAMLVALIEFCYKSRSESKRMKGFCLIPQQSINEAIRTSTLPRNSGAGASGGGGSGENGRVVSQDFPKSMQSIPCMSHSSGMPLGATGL
UniProt P19491, residues 22-883: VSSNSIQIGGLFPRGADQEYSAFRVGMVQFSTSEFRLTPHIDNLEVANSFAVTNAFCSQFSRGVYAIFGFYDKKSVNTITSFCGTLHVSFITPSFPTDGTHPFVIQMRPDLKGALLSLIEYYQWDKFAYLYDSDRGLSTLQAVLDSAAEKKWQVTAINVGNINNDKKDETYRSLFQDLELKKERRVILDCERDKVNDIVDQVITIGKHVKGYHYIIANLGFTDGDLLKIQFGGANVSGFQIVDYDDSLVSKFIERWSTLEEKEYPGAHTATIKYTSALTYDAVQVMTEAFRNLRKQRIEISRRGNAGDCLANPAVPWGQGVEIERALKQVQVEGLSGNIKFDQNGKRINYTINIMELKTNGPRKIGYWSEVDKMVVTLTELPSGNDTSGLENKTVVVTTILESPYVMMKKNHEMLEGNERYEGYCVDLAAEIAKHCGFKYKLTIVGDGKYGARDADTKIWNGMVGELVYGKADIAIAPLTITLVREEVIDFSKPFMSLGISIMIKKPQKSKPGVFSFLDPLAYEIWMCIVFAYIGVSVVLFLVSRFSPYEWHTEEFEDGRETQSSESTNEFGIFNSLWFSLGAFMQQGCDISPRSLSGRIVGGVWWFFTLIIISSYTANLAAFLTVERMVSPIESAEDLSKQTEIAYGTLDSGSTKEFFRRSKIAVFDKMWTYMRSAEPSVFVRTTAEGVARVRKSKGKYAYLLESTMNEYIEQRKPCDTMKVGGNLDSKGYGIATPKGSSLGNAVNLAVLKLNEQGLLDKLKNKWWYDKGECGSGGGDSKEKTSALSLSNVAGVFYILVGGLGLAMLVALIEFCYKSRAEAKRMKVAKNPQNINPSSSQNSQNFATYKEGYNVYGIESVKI
UniProt Q00960, residues 27-1482: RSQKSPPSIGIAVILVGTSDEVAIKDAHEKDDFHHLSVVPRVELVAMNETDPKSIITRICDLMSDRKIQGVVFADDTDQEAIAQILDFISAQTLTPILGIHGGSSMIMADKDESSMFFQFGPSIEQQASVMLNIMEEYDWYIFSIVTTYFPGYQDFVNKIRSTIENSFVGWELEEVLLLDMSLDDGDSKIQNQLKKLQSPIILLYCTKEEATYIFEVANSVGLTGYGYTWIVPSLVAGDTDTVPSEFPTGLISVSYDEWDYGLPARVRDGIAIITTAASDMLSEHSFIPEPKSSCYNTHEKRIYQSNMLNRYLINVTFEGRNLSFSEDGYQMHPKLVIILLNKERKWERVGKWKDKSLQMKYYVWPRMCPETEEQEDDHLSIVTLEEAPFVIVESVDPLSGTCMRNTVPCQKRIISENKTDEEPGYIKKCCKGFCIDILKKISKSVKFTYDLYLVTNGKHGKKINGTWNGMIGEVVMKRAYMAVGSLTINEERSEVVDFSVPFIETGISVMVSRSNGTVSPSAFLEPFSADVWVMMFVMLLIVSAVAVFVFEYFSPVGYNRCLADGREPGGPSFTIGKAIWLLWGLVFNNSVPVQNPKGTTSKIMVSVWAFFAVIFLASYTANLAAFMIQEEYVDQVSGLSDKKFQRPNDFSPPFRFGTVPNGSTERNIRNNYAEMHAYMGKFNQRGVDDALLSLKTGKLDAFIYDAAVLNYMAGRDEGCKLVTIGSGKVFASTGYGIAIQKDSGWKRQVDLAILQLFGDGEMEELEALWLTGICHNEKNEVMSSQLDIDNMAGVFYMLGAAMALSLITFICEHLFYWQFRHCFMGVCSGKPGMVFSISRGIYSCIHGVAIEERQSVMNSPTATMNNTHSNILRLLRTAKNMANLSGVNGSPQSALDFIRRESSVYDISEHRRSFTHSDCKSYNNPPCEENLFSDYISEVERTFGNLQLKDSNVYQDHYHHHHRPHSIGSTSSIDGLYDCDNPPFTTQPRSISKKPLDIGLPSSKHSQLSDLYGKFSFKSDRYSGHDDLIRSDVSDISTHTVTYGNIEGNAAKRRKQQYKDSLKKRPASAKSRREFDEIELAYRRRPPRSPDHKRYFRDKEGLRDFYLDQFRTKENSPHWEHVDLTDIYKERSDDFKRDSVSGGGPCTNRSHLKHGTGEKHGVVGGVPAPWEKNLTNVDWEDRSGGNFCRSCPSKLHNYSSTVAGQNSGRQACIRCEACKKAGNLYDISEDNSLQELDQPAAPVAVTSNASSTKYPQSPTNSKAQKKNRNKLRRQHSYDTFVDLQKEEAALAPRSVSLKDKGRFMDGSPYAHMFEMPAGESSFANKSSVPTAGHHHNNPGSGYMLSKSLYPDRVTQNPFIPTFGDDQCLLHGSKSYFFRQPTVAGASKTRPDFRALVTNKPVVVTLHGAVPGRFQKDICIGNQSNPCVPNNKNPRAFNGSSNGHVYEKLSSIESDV

In publication PMC6130078 one finds binding data, which are given here for five substances.

These are yes or no findings as the source states them, for the method shown. In cells and extracts the contact can be indirect. Some entries that bind do so weakly or less than the wild type. For some assays here: Where a sequence is shown, tags or fusion partners need not be part of it.

As to “GFP-GluA1 (pCI-SEP-GluA1) (from UniProt P19490 19-907) (receptor)”, in the test with Myc-Parkin, the binding entry is “no binding”.
With “GFP-GluA2 (pCI-SEP-GluA2) (from UniProt P19491 22-883) (receptor)”, in the test with Myc-Parkin, the binding result is on record as “no binding”.
On to “GFP-GluN1 (pCI-SEP-GluN1) (from UniProt P35439 19-938) (receptor)”, for which the binding entry in the test with Myc-Parkin is on record as “binds”.
“GFP-GluN2B (pCI-SEP-GluN2B) (from UniProt Q00960 27-1482) (receptor)”: in the test with Myc-Parkin, the binding result is on record as “no binding”.
For “GFP-Parkin WT (from UniProt O60260 1-465) (enzyme)”, the binding result with GFP-Homer1 is recorded as “binds”.
